Experimental data taken from ChEMBL document CHEMBL1201862, “PubChem BioAssay data set” (2004).
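Grown in 96-well plates, cells were treated for 48 hours with each compound at five concentrations. Insufficient inhibition: endpoint recorded as highest concentration tested. GI50 = concentration required for 50% inhibition of growth.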 Active and inactive are the calls of the source. No stated cut-off is given here; in the data, active = GI50 up to about 1.1 µM and inactive = higher.

These molecules were tested on NCI-H322M (assay: inhibition of tumour cell growth, NCI panel, 48 h).
`O=C1c2ccccc2-c2nc3ccncc3n21` was tested, and the GI50 was inactive: > 100 µM. `CCCC(C)NC(=O)c1ccc(N(C)Cc2cnc3nc(N)nc(N)c3n2)cc1` (stereo not given) was tested, and the GI50 was inactive: 24.3 µM. For `CN1CC(c2ccccc2)=CC2=C1C=CC(=N)/C2=N\N`, the GI50 was inactive: 4.73 µM. For `c1cc2c(c(NC3=NCCN3)c1)CCCC2`, the GI50 was inactive: > 100 µM. `Cc1c(-c2ccccc2)c(-c2ccc(OCCN(C)C)cc2)n2ccccc12` was tested, and the GI50 was inactive: 9.68 µM. With `COc1cc2c(cc1OC)C13CCN4C=C5CCOC6CC(=O)N2C1C6C5CC43` (stereo not given) the GI50 was inactive: > 100 µM. `COc1ccc(C(=O)CC2=Nc3nnc(CCCCCCCc4nnc5n4C(=O)C(CC(=O)c4ccc(OC)cc4)=N5)n3C2=O)cc1` was tested, and the GI50 was inactive: > 100 µM. `COC(=O)[C@H](Cc1c[nH]c2ccccc12)NC(=O)c1ccccc1I` was tested, and the GI50 was inactive: 16.4 µM. For `COc1cc(/C=C/C(=O)c2sc(-n3nc(-c4ccccc4)cc3-c3ccccc3)nc2C)ccc1O`, the GI50 was inactive: 72.3 µM. With `N#CC(c1ccccc1)(c1ccccc1)[C@@H](c1ccccc1)[C@H](Cc1ccccc1)NS(=O)(=O)c1ccccc1` the GI50 was inactive: > 100 µM. With `CCOC(=O)C1(C(=O)OCC)CC=C(C)CC12C(=O)Nc1ccccc12` (stereo not given) the GI50 was inactive: > 100 µM. In the case of `CCC1=C(c2ccc(OC)cc2)CC[C@]2(CCNC2=O)[C@@H]1C`, the GI50 is reported as inactive: 82.2 µM. `COc1cc2c(/C=C3/C(=O)Nc4ccccc43)c(Cl)n(Cc3ccc(Cl)cc3)c2cc1C` was tested, and the GI50 was active: 1.03 µM. `CC1(C)CC2=NOS3=C2C(=NO3)C1c1ccccn1` (stereo not given) was tested, and the GI50 was inactive: > 100 µM. With `O=C1[C@@H](O)[C@@H]2CCCC[C@@]23CCCN13` the GI50 was inactive: > 100 µM. `O=[N+]([O-])c1ccc(/C=N/n2c(S)nnc2CCc2nnc(S)n2/N=C/c2ccc([N+](=O)[O-])o2)o1` was tested, and the GI50 was inactive: 73.3 µM. In the case of `COc1ccc(-c2ncnc(-c3ccc(OC)c(OC)c3)n2)cc1OC`, the GI50 is reported as inactive: > 100 µM. In the case of `CCOC(=O)C1CCn2c(nc3c(=O)n(C)c(=O)n(C)c32)S1` (stereo not given), the GI50 is reported as inactive: > 100 µM. `COC(=O)[C@H](C)NC(=O)C1(CNC(=O)[C@H](C)NC(=O)OC(C)(C)C)Cc2ccccc2-c2ccccc2C1` was tested, and the GI50 was inactive: > 49.3 µM. In the case of `O=c1s[s+]([O-])c2ccccc12` (stereo not given), the GI50 is reported as inactive: > 100 µM. `CN(C)C(c1ccccc1)C1COC2Cc3ccccc3C1O2` (stereo not given) was tested, and the GI50 was inactive: > 100 µM. With `CC(=O)OC1(C)C(=O)OC/C2=C/CN(C)CCC(OC(=O)C(O)(C(C)Cl)CC1C)C2=O.c1ccccc1` (stereo not given) the GI50 was inactive: > 100 µM. `O=c1ccn([C@@H]2C=C(CO)[C@@H](O)[C@H]2O)c(=O)[nH]1` was tested, and the GI50 was inactive: > 625 µM. `CC(=O)Nc1ccc(C(=O)N2N=C(C)/C(=C/c3ccccc3O)C2=O)cc1` was tested, and the GI50 was inactive: 37.5 µM. `O=C1NC2(CN3CCC2CC3)C(=O)N1CN(Cc1ccccc1)c1ccccc1` (stereo not given) was tested, and the GI50 was inactive: > 100 µM. For `O=c1[nH]c2ccc(Cl)cc2c2oc(-c3ccccc3)nc12`, the GI50 was inactive: 22.3 µM. For `Cc1ccc(NC(=O)/C(C#N)=C/c2ccccc2)c(C)c1`, the GI50 was inactive: > 100 µM. For `C=C1CCC2(C(C)=O)COC1(C)O2` (stereo not given), the GI50 was inactive: > 100 µM. With `O=c1cc(-c2ccccc2)[nH]c2cccc(S)c12` the GI50 was inactive: 18.1 µM. In the case of `CCOC(=O)CCC(C(=O)OCC)n1nnc2cc(Nc3c(C)[n+]([O-])c4cc(F)c(OCC)cc4[n+]3[O-])ccc21` (stereo not given), the GI50 is reported as inactive: > 100 µM. For `COc1ccc(C=O)cc1Oc1ccc(C[C@H]2c3c(cc(OC)c4c3Oc3cc5c(cc3O4)CCN(C)C5=O)CCN2C)cc1`, the GI50 was inactive: 8.34 µM. With `CCOC(=O)C1=C(C)N(NC(=O)c2ccccc2)C2(O)CCCC12C(=O)OCC` (stereo not given) the GI50 was inactive: > 100 µM. `CC(=O)C(CN1CCOCC1)C(c1ccccc1)c1c(O)c2ccccc2oc1=O` (stereo not given) was tested, and the GI50 was inactive: > 100 µM. `NC(=O)C(N)CC12CC3CC(CC(C3)C1)C2` (stereo not given) was tested, and the GI50 was inactive: 42.3 µM. `Clc1cc2nc(C3CCCO3)[nH]c2cc1Cl` (stereo not given) was tested, and the GI50 was inactive: 48.6 µM. `CSc1nc2c(c(=O)[nH]1)N=C(c1ccc([N+](=O)[O-])cc1)CC(c1ccccc1)N2` (stereo not given) was tested, and the GI50 was inactive: 99.8 µM. In the case of `CCCCCCCCC[C@@H]1C[C@@H]2CCC3C(C(=O)OCCCCNC(=O)OCc4ccccc4)=C(C)N=C(N1)N32` (stereo not given in full), the GI50 is reported as inactive: 12.3 µM. `C=C=C[P+](c1ccccc1)(c1ccccc1)c1ccccc1` was tested, and the GI50 was inactive: 35.3 µM. In the case of `O=C(CCC(=O)Nc1cccc(Cl)c1)CC(=O)c1ccc(Cl)cc1`, the GI50 is reported as inactive: > 100 µM. With `CC(C)(C)OC(=O)NC(CSCc1ccc(C(=O)c2ccccc2)cc1)C(=O)O` (stereo not given) the GI50 was inactive: > 100 µM. `CSc1nc(SC)c2ncn(C3CC(Oc4ccc(C)cc4)C(COc4ccc(C)cc4)O3)c2n1` (stereo not given) was tested, and the GI50 was inactive: > 100 µM. For `C(=C\c1cccc(/C=C/c2ccccn2)n1)/c1ccccn1`, the GI50 was inactive: > 100 µM. For `c1ccc2/c3[nH]/c(c2c1)=N\c1ccc(cc1)-c1nc2ccc(cc2o1)/N=c1/[nH]/c(c2ccccc12)=N/c1ccc2nc(oc2c1)-c1ccc(cc1)\N=3`, the GI50 was inactive: 28.8 µM. In the case of `Oc1ccc(O)c(-n2cccn2)c1-n1cccn1`, the GI50 is reported as inactive: > 100 µM. In the case of `CC(=O)OCC1OC(n2c(Br)nc3c2c(=O)n(C)c(=O)n3C)C(OC(C)=O)C1OC(C)=O` (stereo not given), the GI50 is reported as inactive: 42.1 µM. For `O=c1cc(/N=N/c2ccc(O)cc2)[nH]c(=O)[nH]1`, the GI50 was inactive: 85.3 µM. For `CC12CCC(=O)N1[C@@H](c1ccccc1)[C@@H](c1ccccc1)O2` (stereo not given in full), the GI50 was inactive: > 100 µM. For `O=C(COc1ccc(OCC(=O)N2C(=O)CN(c3ccc(Cl)cc3)C2=S)cc1)N1C(=O)CN(c2ccc(Cl)cc2)C1=S`, the GI50 was inactive: 28.1 µM. In the case of `O=c1[nH]c2ccc(C(F)(F)F)cc2nc1C(F)(F)F`, the GI50 is reported as inactive: 26.2 µM. In the case of `Cc1cc(S(=O)(=O)[N-]C(=C(C#N)C#N)[n+]2ccc(N(C)C)cc2)c(SCC(=O)O)cc1Cl`, the GI50 is reported as inactive: 94.8 µM. `Oc1ccc(SCc2cc(O)ccc2O)cc1` was tested, and the GI50 was inactive: 31.7 µM. In the case of `CC1=C2C(=O)c3ccccc3C(=O)[C@H]2C[C@@H](N2CCCC2=O)O1`, the GI50 is reported as inactive: > 100 µM. In the case of `O=c1[nH]nc(-c2ccc([N+](=O)[O-])cc2)n1/N=C/c1ccc([N+](=O)[O-])cc1`, the GI50 is reported as inactive: > 100 µM. For `O=C1CC2CCC(C1)[S+]2[O-]` (stereo not given), the GI50 was inactive: > 100 µM. For `COc1ccc(N2C(=O)[C@@H](N=[N+]=[N-])[C@@H]2[C@H]2COC(C)(C)O2)cc1`, the GI50 was inactive: > 100 µM. For `CCOC(=O)C(C)Sc1nnc(COc2ccccc2OC)n1-c1ccccc1` (stereo not given), the GI50 was inactive: > 100 µM. With `CC(=O)OCC1OC(n2c(C#N)cc(=O)[nH]c2=O)CC1OC(C)=O` (stereo not given) the GI50 was inactive: > 100 µM. With `COc1ccc(C(=O)N/N=C2\C(=O)c3c(C)cc(C)cc3CC2(C)C)cc1` the GI50 was inactive: 31.3 µM. For `CC(=O)OC(C(=O)NNC(=O)OC(C)(C)C)c1ccccc1` (stereo not given), the GI50 was inactive: > 100 µM. With `CCOP(=O)(CC(=O)C1CC1)OCC` the GI50 was inactive: > 100 µM. For `CCOc1ccc(NC(=O)C2=C(C)NC(C)=C(C(=O)Nc3ccc(OCC)cc3)C2c2ccc(O)c(OC)c2)cc1`, the GI50 was inactive: 59.4 µM. With `Cc1ccc(NC(=O)CCCC(=O)CC(=O)c2ccc(Br)cc2)cc1` the GI50 was inactive: > 100 µM. In the case of `COC(=O)c1c(C)cccc1/C=C1\Cc2ccc(C)c(C)c2C1=O`, the GI50 is reported as inactive: > 100 µM. In the case of `Cn1c(N)nc(=O)c2c1N(C1OC(CO)C(O)C1O)CN2Cc1ccccc1` (stereo not given), the GI50 is reported as inactive: > 100 µM. `O=C(/C=C/c1ccccc1)CCc1c(O)c2ccccc2oc1=O` was tested, and the GI50 was inactive: > 100 µM. In the case of `COC(=O)CCCCCOS(=O)(=O)c1ccc(C)cc1`, the GI50 is reported as inactive: > 10 µM. `C=CCc1ccc(Oc2cc(CC=C)c3c(c2O)O[C@@H](CO)[C@H]3c2ccc(O)c(-c3cc(CC=C)ccc3O)c2)cc1` was tested, and the GI50 was inactive: 59.3 µM. `CCOP(=O)(OCC)/C(=C\N1C(=O)CC(=O)NC1=S)C(=O)OC` was tested, and the GI50 was inactive: > 100 µM. For `COc1ccc(-c2nc3ncccn3c2-c2ccc(S(C)(=O)=O)cc2)cc1`, the GI50 was inactive: 39.4 µM. `CC1CN(C(=O)CN2CCC(CCCCN(C)C)CC2)c2ccccc2NC1=O` (stereo not given) was tested, and the GI50 was inactive: > 100 µM. `CC(=O)OCCn1c(Cc2ccc([N+](=O)[O-])cc2)nn(C(C)=O)c1=O` was tested, and the GI50 was inactive: > 100 µM. With `COc1ccc(O)cc1C=O` the GI50 was inactive: > 100 µM. In the case of `Cc1cc([N+](=O)[O-])ccc1Sc1c2ccccc2nc2ccccc12`, the GI50 is reported as inactive: > 100 µM. `Oc1ccc(N=C2CCC(=C(c3ccccc3)c3ccc(Nc4ccc(O)cc4)cc3)CC2)cc1` was tested, and the GI50 was inactive: 61.7 µM. With `CSCCCNC(=O)c1csc([C@@H](CSC)NC(=O)CCNC(=O)[C@@H](NC(=O)OCC(Br)(Br)Br)C(C)O)n1` (stereo not given in full) the GI50 was inactive: > 100 µM. In the case of `COc1cc2c(cc1OC)C(Cc1c3ccccc3cc3ccccc13)N(C)CC2` (stereo not given), the GI50 is reported as inactive: 20.9 µM. In the case of `Cc1cc(S(=O)(=O)Nc2nc(Nc3ccccc3)n[nH]2)c(SSc2cc(Cl)c(C)cc2S(=O)(=O)Nc2nc(Nc3ccccc3)n[nH]2)cc1Cl`, the GI50 is reported as inactive: > 100 µM. With `CCOC(=O)N1CC2(C(=O)OC)C=CC1C(C(=O)OC)C2` (stereo not given) the GI50 was inactive: > 100 µM. In the case of `COC(=O)C(Cc1ccccc1)NP(=O)(O)OCC1OC(n2cc(I)c(=O)[nH]c2=O)CC1O` (stereo not given), the GI50 is reported as inactive: > 100 µM. In the case of `OCCCCn1cc(Cn2ncc3c(SCc4ccccc4)ncnc32)nn1`, the GI50 is reported as inactive: > 100 µM. `COc1ccc(OC)c2c(Nc3ccc(S(=O)(=O)O)c4cc(S(=O)(=O)O)cc(S(=O)(=O)O)c34)cc(C)nc12` was tested, and the GI50 was inactive: > 100 µM. With `O=S(=O)(O)CCCc1cccc2ccccc12` the GI50 was inactive: > 100 µM. `CC(C)(C)OC(=O)NC(CO)c1cccc(OCc2ccccc2)c1` (stereo not given) was tested, and the GI50 was inactive: > 100 µM. For `CC1(C)C2CCC13CS(=O)(=O)N1O[C@]13C(=O)O2` (stereo not given in full), the GI50 was inactive: > 100 µM. For `CC/C=C\C/C=C\C/C=C\CCCCCCCC(=O)OCC(O)CO` (stereo not given), the GI50 was inactive: > 67.8 µM. In the case of `Clc1ncnc2c1nc(C#Cc1ccccc1)n2Cc1ccccc1`, the GI50 is reported as inactive: 14.7 µM. In the case of `COc1cc2c(c(OC)c1OC)-c1ccc(SC)c(=O)cc1[C@@H](NC(=O)c1ccc(C#N)cc1)CC2`, the GI50 is reported as active: < 0.01 µM. In the case of `Cc1ccc2[nH]c3c(C)c4ccncc4c(C)c3c2c1`, the GI50 is reported as active: 0.59 µM. For `CCC1(c2ccccc2)Sc2ccccc2-n2cccc2C1=O` (stereo not given), the GI50 was inactive: > 10 µM. With `CCOC(=O)C1(C#N)C(=O)c2cc[n+](CC[n+]3ccc4c(c3)C(=O)C(C#N)(C(=O)OCC)C4=O)cc2C1=O` (stereo not given) the GI50 was inactive: > 100 µM.
